# Measurements taken from the supplement of paper PMC8728848.
# The other results are listed elsewhere or left out.
# B1: AFL (Aspergillus fumigatus), Q4WW81 (protein)
# chain: STPGAQQVLFRTGIAAVNLTNHLRVYFQDVYGSIRESLYEGSWANGTEKNVIGNAKLGSPVAATSKELKHIRVYTLTEGNTLQEFAYDSGTGWYNGGLGGAKFQVAPYSRIAAVFLAGTDALQLRIYAQKPDNTIQEYMWNGDGWKEGTNLGGALPGTGIGATSFRYTDYNGPSIRIWFQTDDLKLVQRAYDPHKGWYPDLVTIFDRAPPRTAIAATSFGAGNSSIYMRIYFVNSDNTIWQVCWDHGKGYHDKGTITPVIQGSEVAIISWGSFANNGPDLRLYFQNGTYISAVSEWVWNRAHGSQLGRSALPPA
# What was measured:
# Test in all cases: glycan array binding signal (z-score within array); higher = stronger binding
# Conditions in all cases: glycan notation: IUPAC condensed, linker removed
# [1] = biological target: Neu5Ac(a2-6)Gal(b1-4)GlcNAc(b1-2)Man(a1-6)[GlcNAc(b1-2)Man(a1-3)]Man(b1-4)GlcNAc(b1-4)GlcNAc
# How it was run: (§1)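 Arrays were curated from the Consortium for Functional Glycomics database, 3228 in total, and kept only where the protein sequence was available. Binding is expressed as a within-array Z-score. This score was averaged across arrays of the same protein sequence at different concentrations or buffers and across linkers, and negative values can be read as non-binding.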
# [2] = biological target: Neu5Ac(a2-6)Gal(b1-4)GlcNAc(b1-2)Man(a1-6)[Man(a1-3)]Man(b1-4)GlcNAc(b1-4)GlcNAc
# How it was run: as §1
# [3] = biological target: Neu5Ac(a2-6)Gal(b1-4)GlcNAc(b1-3)Gal(b1-3)GlcNAc
# How it was run: as §1
# [4] = biological target: Neu5Ac(a2-6)Gal(b1-4)GlcNAc(b1-3)Gal(b1-4)GlcNAc
# How it was run: as §1
# [5] = biological target: Neu5Ac(a2-6)Gal(b1-4)GlcNAc(b1-3)Gal(b1-4)GlcNAc(b1-3)Gal(b1-4)GlcNAc
# How it was run: as §1
# [6] = biological target: Neu5Ac(a2-6)Gal(b1-4)GlcNAc(b1-3)Gal(b1-4)[Fuc(a1-3)]GlcNAc(b1-3)Gal(b1-4)[Fuc(a1-3)]GlcNAc
# How it was run: as §1
# [7] = biological target: Neu5Ac(a2-6)Gal(b1-4)GlcNAc(b1-3)GalNAc
# How it was run: as §1
# [8] = biological target: Neu5Ac(a2-6)Gal(b1-4)GlcNAc6S
# How it was run: as §1
# Neu5Ac(a2-6)GalNAc = biological target: Neu5Ac(a2-6)GalNAc
# How it was run: as §1
# [9] = biological target: Neu5Ac(a2-6)GalNAc(b1-4)GlcNAc
# How it was run: as §1
# [10] = biological target: Neu5Ac(a2-6)GlcNAc(b1-4)GlcNAc
# How it was run: as §1
# [11] = biological target: Neu5Ac(a2-6)GlcNAc(b1-4)GlcNAc(b1-4)GlcNAc
# How it was run: as §1
# Neu5Ac(a2-8)Neu5Ac = biological target: Neu5Ac(a2-8)Neu5Ac
# How it was run: as §1
# [12] = biological target: Neu5Ac(a2-8)Neu5Ac(a2-3)Gal(b1-3)GalNAc(b1-4)[Neu5Ac(a2-8)Neu5Ac(a2-3)]Gal(b1-4)Glc
# How it was run: as §1
# [13] = biological target: Neu5Ac(a2-8)Neu5Ac(a2-3)Gal(b1-4)Glc
# How it was run: as §1
# [14] = biological target: Neu5Ac(a2-8)Neu5Ac(a2-3)[Gal(b1-3)GalNAc(b1-4)]Gal(b1-4)Glc
# How it was run: as §1
# [15] = biological target: Neu5Ac(a2-8)Neu5Ac(a2-3)[GalNAc(b1-4)]Gal(b1-4)Glc
# How it was run: as §1
# [16] = biological target: Neu5Ac(a2-8)Neu5Ac(a2-8)Neu5Ac
# How it was run: as §1
# [17] = biological target: Neu5Ac(a2-8)Neu5Ac(a2-8)Neu5Ac(a2-3)Gal(b1-4)Glc
# How it was run: as §1
# [18] = biological target: Neu5Ac(a2-8)Neu5Ac(a2-8)Neu5Ac(a2-3)[GalNAc(b1-4)]Gal(b1-4)Glc
# How it was run: as §1
# [19] = biological target: Neu5Ac(a2-8)Neu5Ac(a2-8)Neu5Ac(a2-8)Neu5Ac(a2-3)[GalNAc(b1-4)]Gal(b1-4)Glc
# How it was run: as §1
# [20] = biological target: Neu5Ac(b2-6)Gal(b1-4)GlcNAc
# How it was run: as §1
# Neu5Ac(b2-6)GalNAc = biological target: Neu5Ac(b2-6)GalNAc
# How it was run: as §1
# [21] = biological target: Neu5Ac9Ac(a2-3)Gal(b1-3)GlcNAc
# How it was run: as §1
# [22] = biological target: Neu5Ac9Ac(a2-3)Gal(b1-4)GlcNAc
# How it was run: as §1
# [23] = biological target: Neu5Ac9Ac(a2-6)Gal(b1-4)GlcNAc
# How it was run: as §1
# [24] = biological target: Neu5Gc(a2-3)Gal(b1-3)GlcNAc
# How it was run: as §1
# [25] = biological target: Neu5Gc(a2-3)Gal(b1-3)[Fuc(a1-4)]GlcNAc
# How it was run: as §1
# Neu5Gc(a2-3)Gal(b1-4)Glc = biological target: Neu5Gc(a2-3)Gal(b1-4)Glc
# How it was run: as §1
# [26] = biological target: Neu5Gc(a2-3)Gal(b1-4)GlcNAc
# How it was run: as §1
# [27] = biological target: Neu5Gc(a2-3)Gal(b1-4)[Fuc(a1-3)]GlcNAc
# How it was run: as §1
# [28] = biological target: Neu5Gc(a2-6)Gal(b1-4)GlcNAc
# How it was run: as §1
# Neu5Gc(a2-6)GalNAc = biological target: Neu5Gc(a2-6)GalNAc
# How it was run: as §1
# [29] = biological target: Neu5Gc(b2-6)Gal(b1-4)GlcNAc
# How it was run: as §1
binder,measurement,setting,value
B1,glycan array binding signal (z-score),[1],-0.378
same,glycan array binding signal (z-score),[2],-0.387
same,glycan array binding signal (z-score),[3],-0.381
same,glycan array binding signal (z-score),[4],-0.377
same,glycan array binding signal (z-score),[5],-0.378
same,glycan array binding signal (z-score),[6],0.087
same,glycan array binding signal (z-score),[7],-0.378
same,glycan array binding signal (z-score),[8],-0.376
same,glycan array binding signal (z-score),Neu5Ac(a2-6)GalNAc,-0.383
same,glycan array binding signal (z-score),[9],-0.383
same,glycan array binding signal (z-score),[10],-0.386
same,glycan array binding signal (z-score),[11],-0.385
same,glycan array binding signal (z-score),Neu5Ac(a2-8)Neu5Ac,-0.391
same,glycan array binding signal (z-score),[12],-0.363
same,glycan array binding signal (z-score),[13],-0.383
same,glycan array binding signal (z-score),[14],-0.38
same,glycan array binding signal (z-score),[15],-0.389
same,glycan array binding signal (z-score),[16],-0.378
same,glycan array binding signal (z-score),[17],-0.389
same,glycan array binding signal (z-score),[18],-0.39
same,glycan array binding signal (z-score),[19],-0.379
same,glycan array binding signal (z-score),[20],-0.388
same,glycan array binding signal (z-score),Neu5Ac(b2-6)GalNAc,-0.384
same,glycan array binding signal (z-score),[21],-0.381
same,glycan array binding signal (z-score),[22],-0.393
same,glycan array binding signal (z-score),[23],-0.389
same,glycan array binding signal (z-score),[24],-0.378
same,glycan array binding signal (z-score),[25],-0.011
same,glycan array binding signal (z-score),Neu5Gc(a2-3)Gal(b1-4)Glc,-0.377
same,glycan array binding signal (z-score),[26],-0.384
same,glycan array binding signal (z-score),[27],-0.075
same,glycan array binding signal (z-score),[28],-0.385
same,glycan array binding signal (z-score),Neu5Gc(a2-6)GalNAc,-0.388
same,glycan array binding signal (z-score),[29],-0.389
